# Results reported in ChEMBL document CHEMBL4888484, “Replenishing the malaria drug discovery pipeline: Screening and hit evaluation of the MMV Hit Generation Library 1 (HGL1) against asexual blood stage Plasmodium falciparum ,using a nano luciferase reporter read-out” (2022).
# Hit rate of the full screen: of about 150,000 compounds, about 540 (0.36%) showed an effect of 50% or more. The list shows a part of the results.
# System: Plasmodium falciparum
# Assay: Primary screen in NF54 nanoGlo assay, in single point, at 2uM, 72h; a lower Z score goes with more inhibition
# Type: functional, Erythrocyte
# Conditions: timepoint 72 hour
SMILES,% Inhibition [%],Z score
CCc1nn(C)c2[nH]nc(NC(=O)C3CCN(CC(F)F)CC3)c12,5,-0.82
CC(C)[C@H]1C(=O)NCCN1CCOc1ccc(C(=O)O)cc1Cl,0,0.01
CCCNS(=O)(=O)c1ccc(C(=O)N2[C@@H]3CC[C@H]2C[C@@H](OC)C3)cc1,1,-0.09
CC(=O)N(CCc1noc(C2CCC2)n1)[C@H]1CCN(Cc2cn(C)c3ccccc23)C1,-7,0.81
O=C(Nc1nc(-c2ccncc2)ns1)c1ccncc1Cl,7,-0.9
COc1ccc2c(=O)c(C(=O)Nc3n[nH]c(C(C)C)n3)c[nH]c2c1,30,-3.91
O=C(NCc1noc(C2CC2)n1)N1CCC[C@H](c2ccc(F)c(F)c2)C1,-7,1.17
O=C(Nc1ccc(Cn2ccnc2)cc1)N1CCC[C@H](c2cc(F)ccc2F)C1,7,-0.64
CN1CCN([C@H]2CC(=O)N(c3ccc4c(c3)OCCO4)C2=O)CC1,-8,1.15
CC1=C(CN(C)[C@@H](C)CC(N)=O)C(C)(C)CCC1,-2,0.24
CC1CN(CC(=O)Nc2cccc3nonc23)CC(C)O1 (stereo not given),7,-1.14
COc1ccc(-c2cc(N)n(S(=O)(=O)c3cccc4nsnc34)n2)c(OC)c1,-6,0.97
Cn1cccc1C(=O)N1C[C@@H]2C[C@H](NC(=O)c3cccs3)[C@H]1C2,30,-3.44
COCC(=O)N[C@@H]1CC[C@H]2CCOc3ccccc3C(=O)N3CCN(Cc4ccc(F)cc4)C[C@H]3C(=O)NC[C@H]1O2,-13,1.96
O=C(O)[C@H]1C[C@@H]1C(=O)Nc1ccnn1Cc1ccc(Cl)c(F)c1,1,-0.26
Cc1ccc(NC(=O)CCNS(=O)(=O)c2ccc3nc(O)oc3c2)cc1N(C)C,-22,2.21
Cc1cccc(-c2[nH]ncc2CN2CCC[C@H](CN3CCOCC3)C2)c1,-11,1.68
CC[C@@H](CCNS(=O)(=O)c1cnn(C(F)F)c1)n1nc(C(F)(F)F)cc1C,7,-0.85
CC(=O)Nc1ccc(CN2C[C@@H]3CC[C@H]2CN(C2CCOCC2)C3)cc1,-2,0.36
CCCCO[C@@H]1O[C@H](CO)[C@@H](OC)[C@H](OC)[C@H]1NC(C)=O,-4,0.52
CCCC(=O)N1CCC(C(=O)NC2CCCCCC2c2ccccc2C(F)(F)F)CC1 (stereo not given),29,-3.97
O=C(N/C(=N/c1ccccc1)N1CCN(c2ccc(F)cc2)CC1)c1ccccc1,1,-0.18
Nc1nc(CCNC(=O)C2(N3CCOCC3)CCCCC2)n[nH]1,-10,1.76
COc1cccc(Cn2c(C)c(C3=CCN(S(=O)(=O)c4ccc(CC(C)C)cc4)CC3)c3ccccc32)c1,-9,1.25
CC(=O)N1C[C@H]2CN(C(=O)CCC(C)C)C[C@@]2(C(=O)N2CCCC2)C1,-4,0.56

SMILES,% Inhibition [%],Z score
CN1CCC[C@H](C(=O)NCc2cccnc2Oc2ccc(F)cc2F)C1,0,-0.04
O=C(Nc1cccc2[nH]ncc12)N1CCC(N2CCOC2=O)CC1,-4,0.65
CCc1csc(-c2cn(CC(=O)NCc3ccc4c(c3)OCO4)cn2)n1,-3,0.5
COc1cccc(CNS(=O)(=O)c2cc(C(=O)N3CCOCC3)cs2)c1,10,-1.76
CC[C@H]1CCCCN1C(=O)CN1CCNCC1=O,-6,1.01
O=C(c1cc2ncccn2n1)N1CCN(c2ncccn2)CC1,-2,0.31
CC(C)c1nccc(CN2CCOC[C@@H]2CO)n1,-5,0.66
COC(=O)C(NC1CCN(c2ccc(Cl)cc2)C1)c1cccnc1 (stereo not given),-6,0.77
CCN(CC(=O)Nc1ccc2c(c1)OCCO2)C(=O)[C@H]1CCS(=O)(=O)C1,-3,0.47
O[C@H]1[C@H](NCc2ccc(Cl)c(Cl)c2)[C@H]2CO[C@H](O2)[C@@H]1n1cncn1,7,-1.06
COc1ccc(NC(=O)C2CCCN2CC2CCC(C)O2)cc1 (stereo not given),-3,0.43
COc1cccc(S(=O)(=O)N2CCN(c3nc4nccc(-c5cccc(C(F)(F)F)c5)n4n3)CC2)c1,-10,1.42
Cc1ccc(CN(CCN(C)C)C(=O)CCc2n[nH]c(C)c2C)s1,1,-0.17
CNC(=O)C(C)(C)N(C)Cc1ccc([C@@H]2CCCO2)s1,4,-0.71
O=C(Cc1c[nH]c2ccccc12)Nc1cnn(C[C@H]2COc3ccccc3O2)c1,19,-2.46
Cc1ccc(NC(=O)CN2C(=O)CCc3cc(S(=O)(=O)N4CCOCC4)ccc32)cc1N(C)C,-9,1.72
CN(C)c1nc(CNC(=O)Cn2ncccc2=O)nc(N(C)C)n1,-11,1.44
CCN(CC)C[C@H]1CCCN(CC2OCCO2)C1,-3,0.5
Nc1nc2c(s1)[C@@H](c1ccc(OCc3ccccc3)cc1)CC(=O)N2,4,-0.5
CCc1nc(CN2CCC[C@H](S(=O)(=O)N(C)CCOC)C2)n[nH]1,-49,5.71
CCOc1ccc([C@@H]2CC(=O)NC(NC(=O)c3ccccc3F)=N2)cc1OC,11,-1.35
O=C(COc1ccccc1)NC[C@@H]1C[C@H](F)CN1C(=O)c1ccsc1,20,-2.67
CCCn1cc(C2=CCN(S(=O)(=O)c3ccc(F)c(Cl)c3)CC2)c2cccnc21,-22,2.94
Cc1nn(C)c2c1N(C(=O)c1cc[nH]c1C1CCC1)CCO2,-16,2.34
Cc1c[nH]c2ccc(NC(=O)N3C[C@H](C)OC4(CCCCC4)C3)cc12,-8,1.09
